The whole screen tested about 420,000 compounds, of which about 64,000 (15%) were called active. The shares of active, inactive and inconclusive entries below differ from those in the screen. Calls follow the shape of the dose curve; as a rule, active = well fitted inhibition curve with a large enough effect; inconclusive = small, poorly fitted or top-dose-only effect; inactive = flat fitted curve, though single readings scatter. Potencies of inconclusive entries are left out as doubtful fits.
Assay: qHTS for Inhibitors of human tyrosyl-DNA phosphodiesterase 1 (TDP1): qHTS in cells in absence of CPT; also: nearly all actives have a fitted effect of over 55% in size
Settings: DT40 Tdp1-/- hTDP1 cells, no CPT, ATP luminescence, 48 h; activity change, negative = growth inhibition: at 46.2 µM (top of the series)
Method in brief: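 Stably hTDP1-transfected Tdp1-null chicken DT40 cells were treated with library compounds minus camptothecin and grown for at least 48 hr at 37 °C, after which cellular ATP was quantified by luminescence.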
For COc1ccc(C2Nc3ccccc3C(=O)N2c2cccc3ccccc23)cc1COc1c(C)cccc1C (stereo unspecified), the Potency was active: 2.82 µM.
In the case of COc1ccc2c(c1)-c1nc(NC(=O)c3cccs3)sc1CC2, the Potency is reported as inconclusive [inhibitor, single point].
In the case of CCCCCC(=O)N1C[C@@H](n2cc(C3CC3)nn2)[C@H](O)C[C@@H]1c1ccccc1, the Potency is reported as inconclusive [inhibitor, single point].
With COCC(=O)Nc1c(C(=O)Nc2cccc(OC)c2)oc2ccccc12 the Potency was inconclusive [inhibitor, single point].
With Cc1ccc2c(c1)CCCN2C(=O)c1c(C)noc1C the Potency was inconclusive [inhibitor, single point].
For CN1CCN(C(=S)c2cn(Cc3cccc(F)c3)c3ccccc23)CC1, the Potency was active: 20.6 µM.
For C/C(=N\NC(=O)C1CC1c1ccccc1)c1cccc([N+](=O)[O-])c1 (stereo unspecified), the Potency was inconclusive [inhibitor, single point].
In the case of COc1ccc(-c2nc(N)ncc2-c2ccc(Cl)cc2)c(O)c1, the Potency is reported as inconclusive [inhibitor, single point].
With COc1ccc(CNC(=O)c2cccc3c2C(=O)N(CC2CCCO2)C3)cc1 (stereo unspecified) the Potency was inconclusive [inhibitor, single point].
In the case of COc1ccc(-c2ccc(NS(=O)(=O)c3ccccc3Cl)cc2)nn1, the Potency is reported as active: 18.4 µM.
In the case of CON(C)C(=O)CCN(Cc1ccccc1)C(=O)OC(C)(C)C, the Potency is reported as inconclusive [inhibitor, single point].
For COc1ccc(C2=[N+]([O-])C(C)(C)C(c3ccccc3)=N2)cc1, the Potency was inconclusive [inhibitor, single point].
For CCN(CC)CCNC(=O)c1ccc2c(=O)n3nc(Nc4cccc(Cl)c4C)sc3nc2c1, the Potency was active: 2.59 µM.
For CC1=C(C(=O)Nc2cc(C(=O)NCc3ccccc3)ccc2C)SCCO1, the Potency was inconclusive [inhibitor, single point].
In the case of N#Cc1ccc(C(=O)Nc2ccc3ccccc3c2)cc1, the Potency is reported as inconclusive [inhibitor, partial curve].
With C=CCNc1nc(Cl)nc(Nc2cc(Cl)ccc2OC)n1 the Potency was inconclusive [inhibitor, single point].
With Cc1ccccc1C(=O)NCC(=O)NC1CC1 the Potency was “inactive”.
With C1COCCNCCOCCOCCOCCN1 the Potency was “inactive”.
In the case of Cc1ccc(-c2noc(CCC(=O)NCC3CCCO3)n2)cc1 (stereo unspecified), the Potency is reported as “inactive”.
For CCn1c(SCc2cccnc2)nnc1-c1c[nH]c2ccccc12, the Potency was inconclusive [inhibitor, single point].
For CCCn1c(C(C)Nc2nc(-c3ccc(C)cc3)cs2)nc2ccccc21 (stereo unspecified), the Potency was inconclusive [inhibitor, single point].
For CC(C)(C)c1ccc(C(=O)N2CCC(NC(=O)c3ccccc3)CC2)cc1, the Potency was inconclusive [inhibitor, single point].
With Cc1ccc(CN2CCN(/N=C/c3ccc(C(F)(F)F)cc3)CC2)cc1 the Potency was inconclusive [inhibitor, single point].
For COc1ccc(S(=O)(=O)Nc2ccccc2C(=O)N2CCCCC2)cc1C, the Potency was “inactive”.
With O=C(N/N=C/C=C\c1ccco1)c1ccccn1 the Potency was active: 16.4 µM.
With COc1ccc(Oc2nccc(-c3ccccc3)c2C#N)cc1 the Potency was inconclusive [inhibitor, partial curve].
In the case of CCOC(=O)C(NC(=O)c1ccccc1OCC)(Nc1ncccn1)C(F)(F)F (stereo unspecified), the Potency is reported as inconclusive [inhibitor, single point].
With COc1ccc(S(=O)(=O)Nc2ccc3c(c2)[C@H]2C[C@H](CC(=O)NCC4CC4)O[C@@H](CO)[C@H]2O3)cc1 the Potency was inconclusive [inhibitor, partial curve].
With O=C(OCCCN=C1NS(=O)(=O)c2ccccc21)C1CC(=O)N(c2ccc(Cl)cc2)C1 (stereo unspecified) the Potency was “inactive”.
For CCCn1nc2cc(C(=O)NC3CCCc4ccccc43)ccc2c1OCC (stereo unspecified), the Potency was inconclusive [inhibitor, partial curve, poor fit].
In the case of CCC/C(C(=O)NCCO)=C1/c2ccccc2C(=O)N1c1ccccc1, the Potency is reported as inconclusive [inhibitor, single point].
For COc1ccccc1CN(C)C(=O)CNC(=O)c1cccc(Cl)c1, the Potency was inconclusive [inhibitor, partial curve, poor fit].
For CCc1ccc(N2CC(C)Cn3c2nc2c3c(=O)n(CCN3CCOCC3)c(=O)n2C)cc1 (stereo unspecified), the Potency was inconclusive [inhibitor, partial curve].
With COc1ccc(CNC(=S)N/N=C/c2ccncc2)cc1 the Potency was “inactive”.
With O=C1NCCOC(=O)[C@@H](Cc2ccc(F)cc2)C/C=C\C[C@@H]1CC(=O)N(CCO)Cc1ccccc1 the Potency was active: 20.6 µM.
For CCOC(=O)COc1cccc2c(=O)n(CC(=O)NCCc3ccccc3)ccc12, the Potency was “inactive”.
In the case of CCCCNc1ccc2c(c1)C1CC2CCN1C(=O)OCc1ccccc1 (stereo unspecified), the Potency is reported as inconclusive [inhibitor, single point].
For CCc1nn2c(=O)cc(COC(=O)c3cccs3)nc2s1, the Potency was “inactive”.
For CNC(=O)c1c(NC(=O)CS(=O)(=O)c2ccc(Cl)cc2)sc(C)c1C, the Potency was inconclusive [inhibitor, single point].
In the case of CC(C)(C)c1nnc(SCC(=O)Nc2ccc(N3CCCCC3)cc2)n1N, the Potency is reported as “inactive”.
For CCOc1ccccc1CNC(=O)c1ccc2nc(CCc3ccccc3)oc2c1, the Potency was inconclusive [inhibitor, single point].
For COc1ccc(NC(=O)C(=O)c2cn(CC(=O)N3CCCC3)c3ccccc23)c(OC)c1, the Potency was “inactive”.
For CCOc1ccc(N2C(=O)CSC23CCCCC3)cc1, the activity change, negative = growth inhibition was inconclusive: -36.1% [inhibitor].
With CN(/N=C/c1ccc([N+](=O)[O-])o1)c1ccccc1 the Potency was “inactive”.
With CCCOC(=O)c1ccc(NC(=O)Cc2cccs2)cc1 the Potency was inconclusive [inhibitor, single point].
In the case of Brc1ccc(-c2nn[nH]n2)cc1, the Potency is reported as “inactive”.
With CCOc1cc(C(=O)N2CCN(C/C=C/c3ccccc3)CC2)cc(OCC)c1OCC the Potency was inconclusive [inhibitor, single point].
For O=C(Nc1ccn(CCCN2CCN(c3ccccn3)CC2)c(=O)n1)OCc1ccccc1, the Potency was inconclusive [inhibitor, single point].
For CC(=O)N/N=C/c1cc(C(C)C)cc(/C=N/NC(C)=O)c1O, the Potency was inconclusive [inhibitor, single point].
In the case of CC(Oc1ccccc1)C(=O)Nc1ccc(C(=O)OCc2cc(=O)n3ccsc3n2)cc1 (stereo unspecified), the Potency is reported as inconclusive [inhibitor, single point].
In the case of COc1ccc2nc(Sc3c([N+](=O)[O-])nc(C)n3Cc3ccccc3)[nH]c2c1, the Potency is reported as active: 23.1 µM.
In the case of COc1ccc(N(C(=O)c2ccccc2OC(C)=O)C(C)C2CC2)cc1 (stereo unspecified), the Potency is reported as inconclusive [inhibitor, single point].
With N#Cc1nc(/C=C/c2ccc(F)cc2)oc1N1CCCCC1 the Potency was inconclusive [inhibitor, single point].
For COC(=O)N1CCC2(CCCN(c3ccc(-c4ccccc4)cc3)C2)CC1, the Potency was inconclusive [inhibitor, partial curve].
For COC(=O)c1ccc(CN(Cc2ccc(OC)c(OC)c2)S(=O)(=O)c2ccc(F)c(C(=O)Nc3cc(C)ccc3C)c2)cc1, the activity change, negative = growth inhibition was inconclusive: -30.3% [inhibitor].
With Cc1cc(OCc2cn3cccnc3n2)ccc1Cl the Potency was “inactive”.
For O=C(Nc1ccc2nn(-c3ccccc3)nc2c1)c1ccc2c(c1)OCCO2, the Potency was active: 7.31 µM.
For COC(CN(C(=O)CCl)C(C(=O)NC1CCCCC1)c1ccc(Cl)cc1)OC (stereo unspecified), the Potency was active: 3.26 µM.
For COC(CNc1ncnc2sc(-c3ccccc3)cc12)OC, the Potency was inconclusive [inhibitor, single point].
With CCC/C(=N/NC(=O)c1cccc(Cl)c1)c1ccccc1 the Potency was inconclusive [inhibitor, single point].
In the case of O=C(Nc1ccc2nsnc2c1)NC1CCCCC1, the Potency is reported as inconclusive [inhibitor, single point].
For COc1ccccc1N(/N=C1\Sc2ccccc2C1=O)C(C)=O, the Potency was “inactive”.
With COc1ccc(C(=O)OCC(=O)c2cc(C)n(CC3CCCO3)c2C)cc1[N+](=O)[O-] (stereo unspecified) the Potency was inconclusive [inhibitor, single point].
In the case of COc1ccc(CNC(=O)c2ccc3c(Cl)c4c(nc3c2)CCCC4)c(OC)c1, the Potency is reported as active: 23.1 µM.
With N#CN(CC(N)=O)c1nc(N2CCCCC2)nc(N2CCCCC2)n1 the Potency was inconclusive [inhibitor, partial curve].
In the case of CN(C)c1ncnc2ccc(-c3ccoc3)cc12, the Potency is reported as inconclusive [inhibitor, partial curve].
With Cc1cccc(Nc2cc(C)nc3nc(Cc4ccc(Cl)cc4)nn23)c1 the Potency was inconclusive [inhibitor, single point].
With CN(C)C(=O)c1ccc(NC(=O)CC2SC(N3CCCC3)=NC2=O)cc1 (stereo unspecified) the Potency was “inactive”.
For COc1ccc(S(=O)(=O)N(C)CC(=O)NCCC2=CCCCC2)cc1C, the Potency was inconclusive [inhibitor, single point].
For Cc1ccc(-c2nc3ccc(Br)cn3c2Cc2ccccc2)cc1, the Potency was inconclusive [inhibitor, single point].
With CCCCc1ccc(NC(=O)COc2ccc(C(=O)Nc3ccccc3OCC)cc2)cc1 the Potency was inconclusive [inhibitor, single point].
% is scaled to controls: 0 for no effect and ±100 for the full control effect; potency is read from the fitted curve at half-maximal effect; tags tell the direction and shape of the fitted curve.
